Results taken from the supplement of paper PMC11417369.
± gives the standard deviation of the averaged measurements. Some of the results follow.

test system: PfAP2-EXP AP2 domain (GST-tagged); assay: gcPBM binding intensity (ln(normalized median fluorescence intensity)); higher = stronger DNA binding
Procedure, shortened: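 Binding intensity values are the highest Masliner-normalised natural-log median intensity among replicate spots of either probe orientation. The binding step lasted 1 h in 1× PBS with 1% milk, 0.2 mg/ml BSA, 0.5% salmon testes DNA and 0.03% Triton X-100, using GST-tagged P. falciparum DNA-binding domains expressed in E. coli on an Agilent 4 × 180k array of primer-extended double-stranded 36-bp intergenic genomic probes plus negative controls. Alexa488 anti-GST antibody and a 488 nm scan detected bound protein.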

Sequence	gcPBM binding intensity (ln)
CAAAATATTTTTATAACACACATATATATAATGTGC [CACACA_site4767]	8.58 ± 0.38
TACATGTATAAATAAGCACACATGTGGATATGTACA [CACACA_site93]	8.96 ± 0.37
TACACAAGGGGAAAAATATATATATATATATATATA [TGCATGCA_negctrl_site217]	10.2 ± 0.57
TAAAAAATTTTATATTCACACACATATATATATATA [CACACA_site8109]	10.1 ± 0.31
TAAAAGTATATATATACACACATAAATATATATGTA [CACACA_site663]	8.37 ± 0.3
TTGTGAAATAAAATTTGTACACACATATATATATAT [XGTACX_site1078]	10.14 ± 0.092
AAAATTTAAAGCATGACACACAATTATATTATGTGC [CACACA_site3435]	8.29 ± 0.47
TTTTTTTTGGAATTCACACAAATATAACATGGGTAT [CACACA_site5185]	8.46 ± 0.38
TTCTTTTCTTTAGTAGAATGTAAAAAATATAATCTT [XGTACX_negctrl_site290]	8.17 ± 0.51
GGAATTGAAAAATCAGCACACACACTAATACATACA [CACACA_site9059]	8.76 ± 0.45
AAATGGCAATAATGGACACACAAATGTTGTTATATA [CACACA_site2819]	8.62 ± 0.35
AATAATTGTTAAAGGTGTACAATACCTACATAAGAA [XGTACX_site4215]	8.88 ± 0.23
AAAAAGGAAATTTACACACACATATAATATACATTA [CACACA_site3296]	8.47 ± 0.47
ATTTACCAGACCATATGTACATACATAAAACACACA [XGTACX_site3788]	9.07 ± 0.59
ATATGATTATTATTATATAAATTATAAAGTCTAATA [GTGCAC_negctrl_site586]	7.88 ± 0.38
GTTCTACAAGCCACTGCATGCTGATATAGAATAAAT [TGCATGCA_site138]	9.35 ± 0.34
TCATATATCCTTATCACACATATAATAAATTCCCTT [CACACA_site4457]	8.53 ± 0.37
AATATTTCTCATTTTGTGCACTGAAAAATGTAATAT	8.675 ± 0.021
TTCTTTGCTTTTCAAACACACAAAAGTTATTATAGT [CACACA_site6390]	8.47 ± 0.4
TCACATTTTGGACACGTGCACATATATTTGATACAT	8.93 ± 0.32
AAAATTAATTATTACAAAAATGAAAAGACATATTTT [GTGCAC_negctrl_site735]	8.23 ± 0.38
ATTTATATATAAATGTGTACATATATATATATAAAC [XGTACX_site7592]	8.76 ± 0.3
TACCATGTTCAAATTACACACATATAATGCAATATA [CACACA_site7034]	8.63 ± 0.3

Sequence	gcPBM binding intensity (ln)
CTGAAATTAACAAAAGTGCATAAAAATAAAAAATAT [GTGCAC_site9652]	8.99 ± 0.29
ATTGTAAGTAAACACACACACATATATCTGTATTTA [CACACA_site4542]	8.42 ± 0.45
CAATGCAAGGCTTAAAAAAATGGGCATATTATATAT [GTGCAC_negctrl_site304]	8.48 ± 0.61
TTTTTTTACAACATTACACACAAATATTCTGGGTTA [CACACA_site3755]	8.52 ± 0.43
AATATTATATTAAAATGTACAAAAATGAATTACTTT [XGTACX_site1473]	8.49 ± 0.38
TATATACATATATATATATGTATAGATAGATACATT [CACACA_negctrl_site1511]	8.53 ± 0.35
TAACCACAATTTTAATGTACATATATATTTATATAT [XGTACX_site8968]	8.36 ± 0.3
ATTTCTATAAAAATAATCTACATTTTTTTTTTTTTT [CACACA_negctrl_site917]	8.09 ± 0.47
AATATTTTACAATACACATGCAAATAATATTCTAAA [TGCATGCA_site618]	8.63 ± 0.39
TTTTGAAAAAATTTTTATAAAAGAATAAAATTATTA [XGTACX_negctrl_site570]	8.12 ± 0.4
TAAAAATGGAAACACACACACATAAATATATTTTAT [CACACA_site2513]	8.79 ± 0.5
TCTCATTTTCCCTAAAAAAAAAAATAAATAAAAATA [TGCATGCA_negctrl_site580]	8.26 ± 0.43
TTTTTCCATATTGTAGCATGCAGTATATATATCATG [TGCATGCA_site530]	9.47 ± 0.25
ATATTATTTATGTATGCATGCGGCGAAATGGGCTTG [TGCATGCA_site28]	9.39 ± 0.33
AATGGGTTACACATATGTACATAAAATATAAAAAAT [XGTACX_site3440]	8.91 ± 0.51
AAAAAAAAAAAAAAAAAAAAAAAAAAAATACGAAAG [GTGCAC_negctrl_site729]	8.98 ± 0.028
ATATATATATATATATGTACTTAAAAAATATATACA [XGTACX_site8952]	10.2 ± 0.53
TATTTTTTTTGTGTGTGTCCTCATGTAATACTGCAA [XGTACX_site1380]	8.84 ± 0.57
CTTTTTAATTAATACACACACACACGGATATAAATA [CACACA_site7145]	8.95 ± 0.49
TATATTAAACTTTGCACACATAATTTAACTACAAAG [CACACA_site3441]	8.58 ± 0.24
AATCATTTATTGATGGTGCAATATACCATCTAATGA [GTGCAC_site9440]	8.35 ± 0.014
AAAAAAAAAAAACACACACACACACCCAAATATATA [CACACA_site150]	8.49 ± 0.61
